In PubChem BioAssay AID463173 (ICCB-Longwood Screening Facility, Harvard Medical School, 2010):
The campaign covered roughly 52,000 compounds. About 4,300 (8.3%) were called active. Rule as the data show it: active = survival mostly below about 52% (no sharp cut-off); inactive = mostly above about 56%. This is one part of the list.

System: DeltatarO mutant
Test: S. aureus survival, RN4220 and DeltatarO strains – OD600, teichoic acid synthesis inhibitors, primary screen (AID 463173)
Conditions: S. aureus RN4220 wild type/DeltatarO growth, OD600, 18 h, stronger effect = lower value, screened at 18.75 µg/mL (by protocol)

Compound	survival
O=C(CN1C(=O)COc2ccccc21)c1ccc(Cl)cc1	inactive: 74%
Cc1cccc(C(=O)Nc2ccccc2OCc2cc(=O)n3ccccc3n2)c1	inactive: 88%
CCOc1ccc(NC(=O)c2cn(C3CCCCC3)c(=O)c3c2c2ccccc2n3C)cc1	inactive: 72%
COc1ccc(C)cc1NS(C)(=O)=O	inactive: 75%
Cc1ccc(-c2nnc(SCC(=O)NC(C)(C)C)nc2-c2ccc(C)cc2)cc1	inactive: 80%
N#C/C(=C/c1cccs1)C(=O)O	inactive: 98%
Cn1c(=O)c2c(nc(NCCc3ccccc3)n2Cc2ccccc2Br)n(C)c1=O	inactive: 54%
CCOc1ccc(C(=O)N(Cc2nc(-c3cccc(C)c3)no2)C(C)C)cc1	active: 0%
COc1cccc2c1cc1c(=O)n(CC(=O)N3CCN(c4ccc(F)cc4)CC3)nc(C)n12	inactive: 87%
N#Cc1cc(Cl)c(N2CCCCCC2)cc1C#N	inactive: 84%
O=C(CCCSc1nc(-c2ccco2)cc(C(F)(F)F)n1)NCC1CCCO1 (stereo not drawn)	inactive: 56%
CC1=NN(C(C#N)c2ccccc2)C(C)(C)C1 (stereo not drawn)	inactive: 104%
CCCS(=O)(=O)c1nc(S(=O)(=O)c2ccc(C)cc2)c(NCCCOC(C)C)s1	inactive: 102%
COc1ccc2nc(SCC(O)c3cccc(Br)c3)[nH]c2c1 (stereo not drawn)	inactive: 76%
Cc1ccc(Sc2ccc(N3CCCC(C(=O)Nc4ccc(F)cc4)C3)nn2)cc1 (stereo not drawn)	inactive: 55%
O=C(Cn1nc(N2CCN(c3ccccc3)CC2)ccc1=O)NCc1ccccc1F	inactive: 84%
CCN(CC)C(=O)CSc1nc2cc3c(cc2c(=O)n1CCCC(=O)NCc1ccc2c(c1)OCO2)OCO3	inactive: 91%
COc1ccc(CCNC(=O)C(=O)NCC(c2cccs2)S(=O)(=O)c2cccs2)cc1 (stereo not drawn)	inactive: 78%
Cn1c(=O)c2[nH]c(=S)[nH]c2n(C)c1=O	inactive: 103%
CCOc1ccccc1Nc1nc2ccccc2nc1NS(=O)(=O)c1ccc(Cl)cc1	inactive: 79%
COc1ccc(C(=O)n2nc(-c3cccnc3)nc2NCc2ccccc2)cc1OC	inactive: 81%
CC(=O)N1CCCc2cc(S(=O)(=O)N3CCC(C(=O)Nc4c(C)cccc4C)CC3)ccc21	inactive: 71%

Compound	survival
COc1ccc(-c2nc(CN3CCC(C(=O)NCc4ccc(C)cc4)CC3)c(C)o2)cc1OC	inactive: 68%
CCOc1ccc(CNC(=O)CCCn2c(=O)c3cccn3c3ccccc32)cc1	inactive: 55%
NC(=O)c1c(NC(=O)CN2CCCC2)sc2c1CCCC2	inactive: 74%
Cc1ccc(Cn2c(C)c3cnn(CC(=O)O)c(=O)c3c2C)cc1	inactive: 106%
O=C(Cn1cc(SCc2ccc(F)cc2)c2ccccc21)N1CCCCC1	inactive: 79%
O=C(Nc1cccc(C(=O)OCc2cc(=O)n3c4c(sc3n2)CCCC4)c1)c1ccc(Cl)cc1	inactive: 93%
COc1ccc(NC(=O)Cn2c(=O)n(CCCCCC(=O)NCc3ccc4c(c3)OCO4)c(=O)c3sccc32)cc1Cl	inactive: 78%
CCCSc1oc(-c2cccs2)nc1S(=O)(=O)c1ccc(C)cc1	inactive: 41%
CCc1nnc(SCc2cccc(Cl)c2)c2cc3sccc3n12	active: -2%
COc1ccc(-c2cc(OC(=O)c3ccccc3Cl)c3c(C)oc(C)c3c(=O)c2)cc1OC	inactive: 82%
CCOc1cccc(C(=O)Nc2ccc3oc(-c4ccncc4)nc3c2)c1	inactive: 70%
CC1CCN(C(=O)COc2ccccc2Cl)CC1	inactive: 101%
Cc1nc2ccccc2n1C(=O)N(C)C	inactive: 78%
Cc1cc(F)ccc1NC(=O)Cn1nc(N2CCN(c3ccccc3)CC2)ccc1=O	inactive: 80%
COc1ccc2c(CNC3CCCCCC3)c(C(=O)O)n(Cc3ccc(C)cc3)c2c1	inactive: 71%
COc1ccc(CNC(=O)CN2C(=O)COc3ccc(S(=O)(=O)N4CCCCC4)cc32)cc1	inactive: 83%
O=C(CCCn1ncn2c(cc3occc32)c1=O)NCc1ccccc1F	inactive: 86%
Cc1cc(C)c2oc(C(=O)Nc3ccc(S(=O)(=O)Nc4ncccn4)cc3)cc(=O)c2c1	inactive: 65%
CCC(CC)NCc1ccc(OC)c(C)c1OC	inactive: 92%
Cc1cc2c(cc1S(=O)(=O)C(C)CC(=O)NC1CCC(C)CC1)OCC(=O)N2 (stereo not drawn)	inactive: 92%
O=C(Nc1ccccc1C(F)(F)F)c1cc2nc(-c3ccccc3)cc(-c3ccccc3)n2n1	inactive: 61%
CCc1ccc2c(c1)NC(c1ccc(F)cc1)=NC(c1ccncc1)=N2	inactive: 89%

Compound	survival
COc1ccccc1NC(=O)c1sc(-c2ccc(Cl)cc2)cc1N	inactive: 149%
CC(c1nnnn1CCc1ccccc1)N1CCN(c2cccc(C(F)(F)F)c2)CC1 (stereo not drawn)	inactive: 63%
CCN(CC)C(=O)c1sc2c(c1C)c(=O)n(Cc1ccccc1)c(=O)n2Cc1cc(C)ccc1C	inactive: 73%
COc1ccc(C)cc1NC(=O)c1sc2nc(-c3ccc(F)cc3)cn2c1C	inactive: 67%
COc1ccc2c(c1)c(CC(=O)Nc1cc(C)cc(C)c1)c(C)n2C(=O)c1ccc(Cl)cc1	inactive: 65%
CCN1C(=O)C2C(c3ccc(OC)cc3)NC(CC)(C(=O)OC)C2C1=O (stereo not drawn)	inactive: 56%
CCS(=O)(=O)N1CCN(CC2CC3C=CC2C3)CC1 (stereo not drawn)	inactive: 81%
CCOc1ccccc1NC(=O)Cn1c(=O)n(-c2ccc(C)c(C)c2)c(=O)c2oc3ccccc3c21	inactive: 65%
O=C(Oc1ccccc1F)c1nc(SCc2ccccc2F)ncc1Cl	inactive: 119%
COc1ccccc1NC(=O)Cn1nc2c3cc(F)ccc3n(Cc3cccc(C)c3)cc-2c1=O	active: -2%
Cc1ccc2oc(C(=O)Nc3ccc(S(=O)(=O)N4CCCCCC4)cc3)cc(=O)c2c1	inactive: 70%
CCOC(=O)c1cc(C)n(CC2CCC(C(=O)Nc3ccc(OC)c(OC)c3)CC2)c1C (stereo not drawn)	inactive: 93%
CCc1ccc(NC(=O)c2sc(-n3nc(C)c(Cc4ccc5c(c4)OCO5)c3C)nc2C)cc1	inactive: 77%
Cc1cc(C)cc(NS(=O)(=O)c2c(C)nc3scc(C)n3c2=O)c1	inactive: 79%
CCN(Cc1ccccc1)C(=O)C1CCC(CNS(=O)(=O)c2ccc3c(c2)CCCC(=O)N3)CC1 (stereo not drawn)	inactive: 112%
Cc1ccc(C)c(NC(=O)c2cc(S(=O)(=O)N3CCN(c4cccc(Cl)c4)CC3)ccc2F)c1	inactive: 77%
CCc1ccc(Nc2nc3c(S(=O)(=O)c4ccc(C)cc4)nnn3c3ccsc23)cc1	inactive: 49%
Cc1ccc(S(=O)(=O)c2nnn3c2nc(N2CCCC(C)C2)c2cc(Cl)ccc23)cc1C (stereo not drawn)	inactive: 96%
Cc1ccc(NC(=O)Cn2c(=O)n(-c3ccccc3)c(=O)c3ccc(C(=O)NCc4ccc5c(c4)OCO5)cc32)cc1	inactive: 114%
CCN(C(=O)Cn1cc(S(=O)(=O)N2CCN(c3ccccc3F)CC2)c2ccccc2c1=O)c1ccc(C)c(C)c1	inactive: 119%
Oc1c(C(c2ccccc2Cl)N2CCC(O)CC2)sc2nc(-c3ccco3)nn12 (stereo not drawn)	inactive: 95%
O=C(Nc1ccccc1C(F)(F)F)c1noc2c1CCCC2	inactive: 63%

Compound	survival
Cc1ccc(-c2nnn(CC(=O)Nc3cccc4cccnc34)n2)o1	inactive: 86%
COc1ccc(Nc2ncc3c(n2)CCN(Cc2cccc(F)c2F)C3)c(OC)c1	inactive: 83%
Cc1ccc2nc(-c3cccc(NC(=O)CSc4ccc(Cl)cc4)c3)oc2c1	inactive: 56%
CC(=O)N1CCCc2cc(S(=O)(=O)NCc3ccccc3Cl)ccc21	inactive: 112%
Cc1ccc(CN2c3ccccc3-c3nc(SCC(=O)NCCc4ccccc4)ncc3S2(=O)=O)cc1	inactive: 55%
CCOC(=O)c1cccc(NC(=O)CSc2cc(=O)n(C)c3ccccc23)c1	inactive: 96%
CCN(CC)CCNC(=O)c1ccc(-c2nc(CN3CCc4ccccc43)c(C)o2)cc1	inactive: 73%
O=C(Nc1ccc(C(F)(F)F)cc1)c1cc(S(=O)(=O)N2CCCc3ccccc32)ccc1F	inactive: 101%
CCOc1ccc(S(=O)(=O)NCc2ccc3c(c2)CCN3C(=O)c2ccc(C)cc2)cc1	inactive: 78%
Cc1ccc(NCc2cc3cc4c(cc3n(CC(=O)Nc3ccc(F)cc3F)c2=O)OCCO4)cc1	inactive: 70%
Cc1nnc2c3ccccc3nc(Nc3ccccc3C(=O)O)n12	inactive: 78%
COc1ccc(S(=O)(=O)Nc2cc(-c3cn4ccc(C)cc4n3)ccc2C)cc1OC	inactive: 62%
CCn1ccc2cc(S(=O)(=O)N3CCC(C(=O)NCC(C)c4ccccc4)CC3)ccc21 (stereo not drawn)	inactive: 94%
O=C(COc1ccc(Cl)cc1)Nc1ccc2nc(SCC(=O)N3CCOCC3)sc2c1	inactive: 84%
Cc1ccc(NC(=O)CSc2nc3ccccc3nc2Cc2ccccc2)c(Cl)c1	inactive: 99%
Cc1ccc(Cl)cc1NC(=O)c1nnn(Cc2ccccc2)c1N	inactive: 80%
Cc1ccc(-n2ncc(C(=O)NCc3ccccn3)c2C2CCN(C(=O)OC(C)(C)C)CC2)cc1C	inactive: 102%
COc1cccc(CNC(=O)C2CCN(Cc3cc4ccccc4n3Cc3ccccc3)CC2)c1OC	inactive: 76%
CCCOc1ccc(NC(=O)CC2C(=O)N(c3ccc(OC)cc3)C(=O)N2CCc2ccncc2)cc1 (stereo not drawn)	inactive: 98%
CCc1nc2ccccc2n1CCCCOc1cccc(C)c1	active: -2%
COc1ccc(C2/C(=C(/O)c3ccccc3)C(=O)C(=O)N2CC(OC)OC)c(OC)c1 (stereo not drawn)	inactive: 78%
CC(C)CC(=O)NCC(c1ccc2c(c1)OCO2)N1CCN(c2ccc(F)cc2)CC1 (stereo not drawn)	inactive: 124%
